The results in this text go back to the supplement of paper PMC11417369.

± gives the standard deviation of the averaged measurements. Some of the results follow.

The subject of the assay is PfAP2-EXP AP2 domain (GST-tagged). The assay is described as follows: gcPBM binding intensity (ln(normalized median fluorescence intensity)); higher = stronger DNA binding. The method in brief: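 An Agilent 4 × 180k array of primer-extended double-stranded 36-bp intergenic genomic probes, with negative controls, was incubated for 1 h with GST-tagged P. falciparum DNA-binding domains expressed in E. coli. Alexa488 anti-GST antibody detected bound protein, scanned at 488 nm. Binding intensity is the highest Masliner-normalised natural-log median intensity across replicate spots of either probe orientation.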
As to “ATTAATTCGTTTTGTACACACATAATGAGTAATTTA [CACACA_site7118]”, the “gcPBM binding intensity (ln)” value is 8.47 ± 0.25.

As to “TAAATTTTTTCCTCCTGTACTTATTATATTTTTTTG [XGTACX_site1572]”, the “gcPBM binding intensity (ln)” value was 8.76 ± 0.33.

As to “TTTTTTTTTTTTTTTTGTACTCATATCTACTATCAT [XGTACX_site274]”, the “gcPBM binding intensity (ln)” value is 8.32 ± 0.47.

In the case of “ACAAGGTTTACGGGTAGTACAAATTTTTGAACATCT [XGTACX_site4739]”, the “gcPBM binding intensity (ln)” value amounted to 8.55 ± 0.3.

With “ATAAAAATTGATTATACACACGCGCCCAGACAACAA [CACACA_site5870]”, the “gcPBM binding intensity (ln)” value amounted to 9.01 ± 0.45.

Turning to “ATATAGATGCATAATACACACATCAGATAATTAACC [CACACA_site6871]”, the “gcPBM binding intensity (ln)” value was found to be 8.64 ± 0.33.

Consider “ATTAAAAGTTTATACAAATAAAAAACAAAACAAAAA [CACACA_negctrl_site1030]”, for which the “gcPBM binding intensity (ln)” value came to 8.62 ± 0.45.

Take “AGCCAAACCTTAAATTTAGCAATAAGTTTACAGGTC [CACACA_negctrl_site360]”: the “gcPBM binding intensity (ln)” value came out at 8.18 ± 0.36.

Turning to “GTAAAATGATATAAATGTACATAATATATATATGTC [XGTACX_site4049]”, the “gcPBM binding intensity (ln)” value was 8.58 ± 0.41.

On to “TGTGTATTTATAAATACACACCAAATGTTAATATAT [CACACA_site6904]”, for which the “gcPBM binding intensity (ln)” value is 8.56 ± 0.43.

Take “TGTCATATTATAAATTGTACAAATAGTATAATTATT [XGTACX_site581]”: the “gcPBM binding intensity (ln)” value was found to be 8.44 ± 0.37.

For “AGTATACATATATATACACACATATATATATATATA [CACACA_site300]”, the “gcPBM binding intensity (ln)” value is 10.2 ± 0.34.

In the case of “ATAAAAATATTATAAGCACACATATATATATATATA [CACACA_site8781]”, the “gcPBM binding intensity (ln)” value was determined as 10.2 ± 0.34.

On to “ATTTTATCTTTAAACTGTACGTATTAATATGTAGAA [XGTACX_site3077]”, for which the “gcPBM binding intensity (ln)” value is 8.47 ± 0.38.

Turning to “TTATGCCTTTAATATACACACTAATATTTTTTTGGC [CACACA_site5171]”, the “gcPBM binding intensity (ln)” value was 8.38 ± 0.38.

“AACTATAAAAATTTTACACACTGTTTTTAAATAATG [CACACA_site5928]”: the “gcPBM binding intensity (ln)” value is 8.52 ± 0.45.

Take “TATATGAAGTACACAATACACACTAATTATATATAA [CACACA_site2608]”: the “gcPBM binding intensity (ln)” value turned out to be 8.59 ± 0.41.

Consider “AATTTTTTTTTTAGACGTACAAGAAAAAACAAAAAA [XGTACX_site4990]”, for which the “gcPBM binding intensity (ln)” value came out at 8.82 ± 0.41.

“AAATAAAAAACAGTGGCACACATTATGTATCCACCT [CACACA_site3756]”: the “gcPBM binding intensity (ln)” value is 8.3 ± 0.26.

With “AAAAAAAAAATATACACACACATATAAATATAAATA [CACACA_site7574]”, the “gcPBM binding intensity (ln)” value was found to be 8.54 ± 0.51.

With “TTAAAGTAGAGAAAATGTACATTTTATTAACACAAT [XGTACX_site6369]”, the “gcPBM binding intensity (ln)” value was found to be 8.72 ± 0.38.

With “TACAGATACAGATACACACACACACCGAAATAAATA [CACACA_site4865]”, the “gcPBM binding intensity (ln)” value was 8.74 ± 0.53.

On to “CTTTAAGTTATATGAAGTACAATTTAAAAAAATGAA [XGTACX_site358]”, for which the “gcPBM binding intensity (ln)” value was determined as 8.41 ± 0.38.

For “TAAATTCCTACATACGCATGTACATTAAAATTTTAA [TGCATGCA_site215]”, the “gcPBM binding intensity (ln)” value worked out at 8.79 ± 0.51.

In the case of “AAAATAAAAAGAAAAAGAAAAAAGGGGGGGTAGGGG [CACACA_negctrl_site1048]”, the “gcPBM binding intensity (ln)” value turned out to be 9.395 ± 0.092.

Regarding “ATACATTCAATGAAATGTACGTTTATTTACAGAAGA [XGTACX_site2999]”, the “gcPBM binding intensity (ln)” value was determined as 8.53 ± 0.39.

On to “TAATGGTTATCACTAACATGCAGTAATATTATATAG [TGCATGCA_site176]”, for which the “gcPBM binding intensity (ln)” value is 8.68 ± 0.32.

“AAAAGAAAAAAAAAAAAAAAAAAAATTAAAATATAA [CACACA_negctrl_site17]”: the “gcPBM binding intensity (ln)” value turned out to be 7.92 ± 0.52.

With “ATATATATATGTATATGTACATATATATGGTAACTC [XGTACX_site681]”, the “gcPBM binding intensity (ln)” value came out at 9.6 ± 0.11.

As to “TTTTTTCTTTTTTTTTGTACATATAATATTTATGTT [XGTACX_site302]”, the “gcPBM binding intensity (ln)” value worked out at 8.62 ± 0.4.

Consider “TAAAATATTATTTATTTACACACCAATCTTCTTTTC [CACACA_site9320]”, for which the “gcPBM binding intensity (ln)” value is 8.34 ± 0.42.

On to “ATATAATATTTATATGCACACTTTTCTATATATAAG [CACACA_site6100]”, for which the “gcPBM binding intensity (ln)” value came out at 8.54 ± 0.26.

Regarding “TCGTATTTAAAATGTAGTACATAATTTGAAAAATAA [XGTACX_site5832]”, the “gcPBM binding intensity (ln)” value worked out at 8.42 ± 0.13.

TACTATTATAAATATGTGCACTTCAATAATATACTA: the “gcPBM binding intensity (ln)” value came out at 8.61 ± 0.24.

As to “CTTAGGTTAAAAGTGTGTACATAAAAACATATATAA [XGTACX_site2213]”, the “gcPBM binding intensity (ln)” value was found to be 8.72 ± 0.45.

Take “TAAATAAATTATTTTCGTACTTATTTATTTTAATTA [XGTACX_site283]”: the “gcPBM binding intensity (ln)” value was 8.65 ± 0.4.

As to “ATAAGAAAAAGACACACACACAAAAAAAAAAAAAAA [CACACA_site2828]”, the “gcPBM binding intensity (ln)” value was found to be 8.24 ± 0.57.

As to “AAAAAAAAAAAACACACACACAAATACAAATGGTAA [CACACA_site1720]”, the “gcPBM binding intensity (ln)” value came out at 8.71 ± 0.54.

In the case of “TTCAATAGGTATAATTGTACTTAATAATATATTGTT [XGTACX_site8363]”, the “gcPBM binding intensity (ln)” value came out at 8.41 ± 0.46.

For “AAGTTATTGATATATACACACAAATATAAATAATAT [CACACA_site6695]”, the “gcPBM binding intensity (ln)” value stood at 8.52 ± 0.39.

For the sequence “AATACATATCAAAGCTGTACAAAGTAAATTTTACTT [XGTACX_site3525]”, the “gcPBM binding intensity (ln)” value was 8.74 ± 0.41.

“TAGAAGCATGGACACACACACATACATACCCATACA [CACACA_site4916]”: the “gcPBM binding intensity (ln)” value came out at 8.72 ± 0.47.

Consider “TTATTTTTCCGGAATAGTACATAGACGCAGATATAA [XGTACX_site6356]”, for which the “gcPBM binding intensity (ln)” value is 9.12 ± 0.47.

Take “AAAAAAAAAAAAAAAGTGCACAGTCGTTTTAAAAAA [GTGCAC_site9848]”: the “gcPBM binding intensity (ln)” value amounted to 8.79 ± 0.11.

Turning to “TCTATATCTTTCAACACACAAATTTTTTTTTCCATC [CACACA_site4238]”, the “gcPBM binding intensity (ln)” value came to 8.62 ± 0.46.
